# Measurements: PubChem BioAssay AID624417 (National Center for Advancing Translational Sciences (NCATS), 2012)
# The campaign covered roughly 410,000 compounds. About 6,400 (1.6%) were called active. Inconclusive means that the source gave no clear call. Such entries were picked first, then a sample of the others. Calls follow the shape of the dose curve; as a rule, active = well fitted inhibition curve with a large enough effect; inconclusive = small, poorly fitted or top-dose-only effect; inactive = no such curve, though single readings can be large or run the other way. Potencies of inconclusive entries are left out as doubtful fits.
# Biological target: Glucagon-like peptide 1 receptor (Homo sapiens) (UniProt P43220)
# Assay: qHTS of GLP-1 Receptor Inverse Agonists (Inhibition Mode); also: nearly all actives have a fitted effect of over 55% in size
# Conditions: HEK293 GLP-1R CRE-luciferase, luminescence, 24 h, GLP-1R form is constitutively active; activity change, negative = inhibition: at 38.3 µM (top of the series) unless noted
# Method in brief: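 HEK293 cells stably co-expressing a cAMP-responsive luciferase reporter and constitutively active GLP-1R were seeded, incubated 12 h, then exposed to compounds for 24 h at 37 C. Luminescence was read 12 min after detection reagent; inverse agonists lower signal.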
# % is scaled to controls: 0 for no effect and ±100 for the full control effect; potency is read from the fitted curve at half-maximal effect; tags tell the direction and shape of the fitted curve.
# Chain of UniProt P43220 (P43220 whole entry, looked up): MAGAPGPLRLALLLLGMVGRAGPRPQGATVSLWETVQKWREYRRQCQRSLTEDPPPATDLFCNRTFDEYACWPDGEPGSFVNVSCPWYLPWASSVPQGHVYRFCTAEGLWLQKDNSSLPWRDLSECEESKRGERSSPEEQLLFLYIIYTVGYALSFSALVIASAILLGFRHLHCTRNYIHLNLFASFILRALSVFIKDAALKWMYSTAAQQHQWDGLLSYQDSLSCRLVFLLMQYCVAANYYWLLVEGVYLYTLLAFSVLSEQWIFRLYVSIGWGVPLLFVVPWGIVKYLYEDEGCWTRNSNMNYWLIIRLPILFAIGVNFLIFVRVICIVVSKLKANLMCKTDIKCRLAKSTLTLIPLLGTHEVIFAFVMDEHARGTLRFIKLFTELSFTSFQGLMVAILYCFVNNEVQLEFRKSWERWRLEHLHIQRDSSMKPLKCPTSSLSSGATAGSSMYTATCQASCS
SMILES,"activity change, negative = inhibition",Potency
COc1ccc(/C=C2\N=C(c3ccc(C)cc3)OC2=O)cc1,inactive: 11.6%,
CC(C)c1ccc(/C=C/C(=O)N2CCc3ccccc3C2)cc1,,"inconclusive [inhibitor, single point]"
C=CCOc1c(Br)cc(CNc2ccc(NC(=O)C(C)C)c(OC)c2)cc1OC,,"inconclusive [inhibitor, partial curve, poor fit]"
CSCCC(NS(=O)(=O)c1ccc(Cl)cc1)C(=O)OCc1cccc(Cl)c1 (configuration not stated),,"inconclusive [inhibitor, single point]"
CC(NC(=O)C(=O)N1CCCCC1)C(c1cccs1)N1CCN(c2ccccc2F)CC1 (configuration not stated),,"inconclusive [inhibitor, single point]"
Fc1ccc(-n2nnc(-c3ccccc3)n2)cc1,inactive: 16.3%,
O=C1C=C(c2cccc(CO)c2)C[C@@H](c2ccc(Cl)cc2)C1,,"inconclusive [inhibitor, single point]"
Cc1cccc(C(=O)N2CCC(=O)N([C@H](COCc3ccc(Cl)cc3)Cc3ccccc3)CC2)c1,,"inconclusive [inhibitor, single point]"
O=C(NCc1ccccc1Cl)c1cccc(OC2CCN(C(=O)C3CC3)CC2)c1,,"inconclusive [inhibitor, single point]"
CC(C)[C@H](NS(=O)(=O)c1ccc2c(c1)OCCO2)C(=O)OCC(=O)Nc1ccccc1Cl,,"inconclusive [inhibitor, partial curve]"
Cc1ccc(C(=O)CSc2nc(C)cc(C)c2C(N)=O)cc1,inactive: 12%,
Cc1ccc(C)c(N2CCN(CCCNC(=O)c3ccc4nc(CCc5ccccc5)oc4c3)CC2)c1,inactive: 4.77%,
CC(C)(C)c1ccc(NC(=O)c2cc(C3CCCN(S(=O)(=O)c4cccc5cccnc45)C3)on2)cc1 (configuration not stated),,"inconclusive [inhibitor, full curve]"
COc1ccc(CCNc2ncnc3sccc23)cc1OC,inactive: 12.3% [at 0.307 µM],
COc1ccc(NC(=O)NC(C)(C(F)(F)F)C(F)(F)F)cc1,,"inconclusive [inhibitor, partial curve, poor fit]"
Cc1ccc(NC(=O)c2cnc3sc(N4CCOCC4)nn3c2=O)cc1N(C)C,inactive: 1.66%,
Cc1ccc2occ(C(c3nnnn3C3CCCC3)N3CCN(C(=O)c4ccco4)CC3)c(=O)c2c1 (configuration not stated),,"inconclusive [inhibitor, partial curve, poor fit]"
N=c1c2c(ncn1CCCO)Oc1ccc3ccccc3c1C2c1ccccc1 (configuration not stated),,"inconclusive [inhibitor, partial curve, poor fit]"
Cc1ccc(CCC(=O)Nc2ncc(Cc3cc(Cl)ccc3Cl)s2)o1,,"inconclusive [inhibitor, full curve, poor fit]"
COC(=O)c1ccn(Cc2ccccc2Cl)n1,,"inconclusive [inhibitor, single point]"
COC(=O)c1scc(-c2ccc(C)cc2)c1S(=O)(=O)Nc1cc(C)ccc1OC,,"inconclusive [inhibitor, single point]"

SMILES,"activity change, negative = inhibition",Potency
Cc1cccc(Oc2cnn(C(C)(C)C)c(=O)c2Cl)c1,,"inconclusive [inhibitor, single point]"
Cc1cccc(NC(=O)Cn2c(=O)n(CCCCCC(=O)NCc3ccc4c(c3)OCO4)c(=O)c3sccc32)c1,inactive: -0.07%,
C/C(=N/Nc1nc(-c2ccccc2)cc(-c2ccc(F)cc2)n1)c1cccc(N)c1,,"inconclusive [inhibitor, partial curve, poor fit]"
OC(c1ccc2ccccc2n1)c1c(Cl)cccc1Cl (configuration not stated),,"inconclusive [inhibitor, single point]"
N#CC1=C(N)NC(SCc2ccc(F)cc2)=C(C#N)C12CCCCC2,,"inconclusive [inhibitor, partial curve, poor fit]"
CCOC(=O)C1(CCc2ccccc2)CCN(C(=O)[C@@H]2C[C@@H](C)NC(=S)N2)CC1,,"inconclusive [inhibitor, single point]"
COc1ccc(CNc2ccc(Br)cc2)cc1,,"inconclusive [inhibitor, partial curve, poor fit]"
CCc1cc(-c2[nH]ncc2-c2ccc(OC)cc2)c(O)cc1O,inconclusive: -85.4% [inhibitor],
N#Cc1nc(COc2ccc(Cl)cc2)oc1NCc1ccc2c(c1)OCO2,,"inconclusive [inhibitor, single point]"
COc1cc(C(=O)Nc2nc(-c3ccc(C)cc3)cs2)ccc1OCC(=O)N1CCOCC1,,"inconclusive [inhibitor, single point]"
COc1ccc(N=N/C(=C\O)C(=O)c2cccs2)cc1,,"inconclusive [inhibitor, single point]"
Oc1c(C(c2ccco2)N2CCN(C(c3ccccc3)c3ccccc3)CC2)sc2ncnn12 (configuration not stated),,"inconclusive [inhibitor, single point]"
O=C(Nc1cccc(Cl)c1)N(Cc1nc2ccccc2c(=O)[nH]1)C1CCCC1,,"inconclusive [inhibitor, single point]"
CCOC(=O)Cn1c(=O)n(C2CCCCC2)c2nc(-c3c(F)cccc3Cl)nc(C(N)=O)c21,,"inconclusive [inhibitor, partial curve, poor fit]"
Cc1ccsc1-c1n[nH]c(=S)n1C1CCCCC1,,"inconclusive [inhibitor, single point]"
CC(C)CCn1c(/C=C/c2ccccc2)nc2ccccc21,,"inconclusive [inhibitor, partial curve, poor fit]"
Cc1ccc(-c2cn3ccc(C)cc3n2)cc1,,"inconclusive [inhibitor, partial curve, poor fit]"
CC(NC(=O)C(c1ccccc1)c1ccccc1)c1ccccc1 (configuration not stated),,"inconclusive [inhibitor, single point]"
Cn1cc(/C=C(\C#N)C(=O)Nc2ccccc2O)c2ccccc21,inconclusive: -40.4% [inhibitor],
CC[C@]12c3[nH]c4cc(-c5ccco5)ccc4c3CCN1C(=O)[C@@H](CC(=O)NCCC1=CCCCC1)C[C@@H]2C(=O)N1CCN(C(=O)c2ccco2)CC1,,active: 7.94 µM
COc1nc(OC)nc(N2CCC(C(=O)NCc3ccco3)CC2)n1,inactive: 7.28%,

SMILES,"activity change, negative = inhibition",Potency
CCc1ccc(C2=CC(c3c(F)cccc3Cl)n3c(nc4ccccc43)N2)cc1 (configuration not stated),,"inconclusive [inhibitor, single point]"
CCc1ccccc1-n1nnc(-c2nsc(NC(=O)c3ccc(C)c(C)c3)n2)c1C,,active: 1.12 µM
CCc1ccc(OCCn2c(C3CC(=O)N(Cc4ccc(F)cc4)C3)nc3ccccc32)cc1 (configuration not stated),,"inconclusive [inhibitor, single point]"
CC1NC(C)(C)Cc2c1ccc1ccccc21 (configuration not stated),,"inconclusive [inhibitor, single point]"
O=C1OC[C@@H]2CCCN2C(=O)[C@@H](CC(=O)N(CCO)Cc2ccccc2)C/C=C\C[C@H]1Cc1ccc(F)cc1,,"inconclusive [inhibitor, single point]"
O=C(NCCc1c[nH]c2ccccc12)/C(=C\c1cccnc1)NC(=O)c1ccccc1Br,,"inconclusive [inhibitor, partial curve, poor fit]"
CCOC(=O)c1c(C)[nH]c(C)c1S(=O)(=O)N(C)CC(=O)Nc1ccc(C)cc1Br,inactive: -21.7%,
O=C(NCC1CCCO1)c1ccc(COc2ccccc2Br)cc1 (configuration not stated),,"inconclusive [inhibitor, partial curve, poor fit]"
COc1cccc(C(=O)Nc2nc(-c3ccc(Br)cc3)ns2)c1,,"inconclusive [inhibitor, single point]"
CCCC(=O)NC(=S)Nc1ccc(S(=O)(=O)Nc2ccc(OCC)cc2)cc1,,"inconclusive [inhibitor, single point]"
CCOC(=O)Cc1ccc(NC(=O)N(Cc2ccc(CC)cc2)Cc2cn[nH]c2-c2ccc(OC)cc2)cc1,,"inconclusive [inhibitor, single point]"
O=[N+]([O-])c1ccc2c(c1)C(O)n1ncnc1S2 (configuration not stated),,"inconclusive [inhibitor, single point]"
O=C(NC1CCCCCC1)c1ccc2c(=O)n3c(nc2c1)CCCCC3,,"inconclusive [inhibitor, full curve]"
Cc1ccc(S(=O)(=O)N2CCN(Cc3nc4ccc(C)cc4o3)CC2)c(C)c1,,"inconclusive [inhibitor, single point]"
COc1ccc(NC(=S)NCCC(c2ccccc2)c2ccccc2)c(OC)c1,,"inconclusive [inhibitor, partial curve, poor fit]"
Cc1ccccc1OCCn1c(CCNC(=O)C2CCCCC2)nc2ccccc21,,"inconclusive [inhibitor, full curve, poor fit]"
CCC(CC)NC(=O)c1nn(Cc2ccccc2)c(=O)c2ccccc12,,"inconclusive [inhibitor, full curve, poor fit]"
CCc1ccc(C2CC(=O)N3CN(c4ccccc4)CSC3=C2C#N)cc1 (configuration not stated),inactive: -16.2%,
CC1CCCN(CCCNC(=O)Cn2ncc3c([nH]c4ccccc43)c2=O)C1 (configuration not stated),inactive: 6.81%,
Cc1cc(C(=O)Nc2sc3c(c2C#N)CCC(C)C3)no1 (configuration not stated),,"inconclusive [inhibitor, partial curve, poor fit]"
